# From the BET-seq Pho4 binding data (Le et al. 2018)
# This is one part of the list. Values were computed here from the reads of four pooled replicates and scatter widely.
# Biological target: T1, Pho4 (S. cerevisiae) (UniProt P07270)
# T1 sequence: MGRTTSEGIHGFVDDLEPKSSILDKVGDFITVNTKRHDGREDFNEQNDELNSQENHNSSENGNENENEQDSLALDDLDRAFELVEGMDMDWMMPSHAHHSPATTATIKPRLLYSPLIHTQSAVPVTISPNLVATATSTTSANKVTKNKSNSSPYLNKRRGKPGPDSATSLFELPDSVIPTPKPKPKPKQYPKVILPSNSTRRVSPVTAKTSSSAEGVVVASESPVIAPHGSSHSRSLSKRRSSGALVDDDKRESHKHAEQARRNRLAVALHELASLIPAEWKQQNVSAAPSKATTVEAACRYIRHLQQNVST
# Test: relative binding free energy (BET-seq); higher = weaker binding
# Conditions: reference: library average
row,Sequence,relative binding free energy
1,AAGTACACGTGTTTTG,0.08 kcal/mol
2,TATAGCACGTGGAGTA,-0.08 kcal/mol
3,TGGTGCACGTGTGGAG,0.07 kcal/mol
4,ATGAACACGTGAGGGT,0.28 kcal/mol
5,GTGTCCACGTGCGTTG,-0.08 kcal/mol
6,CAGTGCACGTGGCTGG,-0.11 kcal/mol
7,GTGTTCACGTGGGAGA,0.31 kcal/mol
8,CAGCTCACGTGGTGTT,0.3 kcal/mol
9,CTTATCACGTGTTTGT,-0.05 kcal/mol
10,GTCGTCACGTGAGTGT,0.24 kcal/mol
11,TTAAGCACGTGAGGGT,-0.02 kcal/mol
12,GGAAACACGTGTCTGT,0.18 kcal/mol
13,TAGTTCACGTGGAGGG,0.23 kcal/mol
14,TGGTGCACGTGCGGAC,-0.11 kcal/mol
15,ATACTCACGTGTGGGG,0.13 kcal/mol
16,CGCAACACGTGGTGGG,-0.03 kcal/mol
17,ATGGTCACGTGAGCTG,0.3 kcal/mol
18,GTTGGCACGTGAATTT,0.17 kcal/mol
19,GAGCTCACGTGGGCGG,0.06 kcal/mol
20,CAGAGCACGTGTTAGG,-0.06 kcal/mol
21,TGGTGCACGTGAGTGG,0.23 kcal/mol
22,GTGGTCACGTGTAGCT,0.15 kcal/mol
23,AAGGGCACGTGGCAGG,-0.23 kcal/mol

row,Sequence,relative binding free energy
1,CGTGACACGTGGAGAG,0 kcal/mol
2,AAGGGCACGTGAAAGT,0.08 kcal/mol
3,GGATTCACGTGGTTGG,0.37 kcal/mol
4,GGTGGCACGTGGTGCC,-0.18 kcal/mol
5,ATAAACACGTGGGGTA,-0.26 kcal/mol
6,GTGGTCACGTGCTTCT,0.1 kcal/mol
7,GGCGACACGTGGAGGA,-0.02 kcal/mol
8,ATCGTCACGTGATATG,0.18 kcal/mol
9,ATGAGCACGTGTTTGT,-0.12 kcal/mol
10,GAGTGCACGTGAAAGG,0.14 kcal/mol
11,TGGCTCACGTGAGCGT,0.24 kcal/mol
12,AATGGCACGTGATAGG,-0.05 kcal/mol
13,GTAGGCACGTGACTGA,0.11 kcal/mol
14,TATTTCACGTGGTAAC,0.24 kcal/mol
15,TGGGTCACGTGACGAG,0.13 kcal/mol
16,GGATACACGTGTGTTT,0.19 kcal/mol
17,GTTGGCACGTGTGAAG,0.1 kcal/mol
18,GTCGCCACGTGTGTTT,0.03 kcal/mol
19,GAGTGCACGTGAATGG,0.24 kcal/mol
20,CATTGCACGTGCGGAG,0.01 kcal/mol
21,CTGGACACGTGTAAGG,0.16 kcal/mol
22,AGTTACACGTGAGGCG,0.38 kcal/mol
23,GTGTTCACGTGCTAAT,0.17 kcal/mol

row,Sequence,relative binding free energy
1,TGACACACGTGGTGTT,-0.13 kcal/mol
2,GTGGGCACGTGGGTAA,-0.19 kcal/mol
3,TACTTCACGTGAAGGT,0.24 kcal/mol
4,TTGTACACGTGAGTCT,0.29 kcal/mol
5,TTTATCACGTGACTAT,0.21 kcal/mol
6,CGGGCCACGTGGATGG,-0.25 kcal/mol
7,AAGGGCACGTGCCGGG,-0.11 kcal/mol
8,TAAGCCACGTGGGTTA,-0.26 kcal/mol
9,TGCTGCACGTGTAGGA,0.07 kcal/mol
10,TGGGGCACGTGAGTGT,0.1 kcal/mol
11,GTCTGCACGTGTATGT,0.07 kcal/mol
12,GGTGTCACGTGTAGGA,0.22 kcal/mol
13,CGAATCACGTGGGGGG,-0.08 kcal/mol
14,CGTGGCACGTGAAGGC,0.13 kcal/mol
15,GCATACACGTGTGGTG,0.1 kcal/mol
16,TTTCACACGTGTATGT,0.06 kcal/mol
17,TTTTGCACGTGCGCTT,-0.11 kcal/mol
18,TTTCTCACGTGCAGTT,0.28 kcal/mol
19,TGCGGCACGTGAGCGT,-0.12 kcal/mol
20,ACTTACACGTGTTGGA,0.18 kcal/mol
21,CGGGTCACGTGGGCTA,-0.07 kcal/mol
22,TGTGTCACGTGTGGTT,0.15 kcal/mol
23,ATGGGCACGTGTTTGG,-0.05 kcal/mol

row,Sequence,relative binding free energy
1,CTTGACACGTGAGTGT,0.15 kcal/mol
2,GGTCGCACGTGGGATA,-0.07 kcal/mol
3,ATAATCACGTGGTGTT,0.07 kcal/mol
4,TATGTCACGTGTGCAG,0.06 kcal/mol
5,TGGATCACGTGTGTGT,0.15 kcal/mol
6,TTGCACACGTGGGAGG,0.02 kcal/mol
7,AAGCGCACGTGAGGGG,0.09 kcal/mol
8,ATTGTCACGTGTAGGC,0.21 kcal/mol
9,TTGGACACGTGGGTTA,-0.13 kcal/mol
10,GATCACACGTGTTGGT,0.11 kcal/mol
11,GTTTGCACGTGAGCAT,0.26 kcal/mol
12,TGTCGCACGTGAGATT,0.16 kcal/mol
13,CTTGTCACGTGCAGGG,0.03 kcal/mol
14,ATATGCACGTGTGGTG,-0.02 kcal/mol
15,GTTCGCACGTGGAGTT,-0.08 kcal/mol
16,GTGGGCACGTGGCGAA,-0.18 kcal/mol
17,TAGGGCACGTGTCGGA,-0.15 kcal/mol
18,AGTTGCACGTGTCATA,-0.01 kcal/mol
19,GTATACACGTGAGGTA,0.24 kcal/mol
20,GGAGGCACGTGGGTCG,-0.29 kcal/mol
21,AGTGTCACGTGGCGTT,0.04 kcal/mol
22,CCGGTCACGTGTATGG,0.12 kcal/mol
23,GGATGCACGTGGATTG,0.19 kcal/mol

row,Sequence,relative binding free energy
1,AATGGCACGTGATGTC,0.14 kcal/mol
2,TATGTCACGTGTAAAA,0.07 kcal/mol
3,TAGCTCACGTGGGGTG,0.15 kcal/mol
4,AGTGACACGTGGCGCG,-0.15 kcal/mol
5,TTTGGCACGTGGGGGA,-0.14 kcal/mol
6,GAGGGCACGTGGTGTT,-0.09 kcal/mol
7,AATGCCACGTGGTGGA,-0.24 kcal/mol
8,TTGGTCACGTGGCTTT,0.12 kcal/mol
9,ATTCTCACGTGGATGG,0.24 kcal/mol
10,AAGGGCACGTGAAGAT,0.19 kcal/mol
11,TACTTCACGTGGGTTC,0.25 kcal/mol
12,TTATGCACGTGAGTTT,0.01 kcal/mol
13,CGCGGCACGTGTAGTT,-0.08 kcal/mol
14,TAGCTCACGTGAAGGG,0.33 kcal/mol
15,GTTAGCACGTGTTCAG,0.02 kcal/mol
16,CTTGTCACGTGTTAAG,0.2 kcal/mol
17,AAAGGCACGTGAGAGG,0.16 kcal/mol
18,GGTTTCACGTGTGTAC,0.38 kcal/mol
19,GGCTGCACGTGGAGGC,0.07 kcal/mol
20,GAGGTCACGTGAGGTG,0.39 kcal/mol
21,CGTGGCACGTGTTGGG,-0.1 kcal/mol
22,AATTTCACGTGTGGGC,0.35 kcal/mol
23,TAGTTCACGTGGGGTG,0.16 kcal/mol
